Measurements published in paper PMC9839372.
No constants are given. Whether binding was seen depends on the method and setting. Binding seen in cells or lysates may run through a third protein. Some results given as binding are weak or reduced against the parent protein; the word gives no strength.

The chains behind the UniProt entries cited, without tags or fusion partners. Where a name states a change or a piece, a line headed by the entry shows the natural chain unless it says otherwise. A line that says so, or that is headed by a name, gives the form on record, which may keep a tag or linker. Residues count along the entry.
GFP-tagged PRR14 (1-212) wild-type fragment (Q9BWN1, residues 1-212): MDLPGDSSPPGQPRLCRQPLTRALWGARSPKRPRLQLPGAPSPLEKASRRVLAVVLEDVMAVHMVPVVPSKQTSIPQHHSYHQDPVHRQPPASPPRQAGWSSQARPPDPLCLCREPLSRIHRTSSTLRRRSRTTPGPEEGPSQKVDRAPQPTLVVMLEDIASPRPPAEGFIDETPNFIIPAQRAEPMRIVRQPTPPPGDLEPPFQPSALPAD
GFP-tagged PRR14 (1-212) HP1-binding site 1 mutant (54-55EE) (Q9BWN1, form named): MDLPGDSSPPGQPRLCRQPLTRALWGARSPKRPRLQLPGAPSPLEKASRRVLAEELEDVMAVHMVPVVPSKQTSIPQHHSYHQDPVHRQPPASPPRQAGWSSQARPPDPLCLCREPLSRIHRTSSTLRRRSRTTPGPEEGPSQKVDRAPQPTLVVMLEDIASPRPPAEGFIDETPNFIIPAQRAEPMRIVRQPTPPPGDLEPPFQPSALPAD
GFP-tagged PRR14 (1-212) HP1-binding site 2 mutant (154-155EE) (Q9BWN1, form named): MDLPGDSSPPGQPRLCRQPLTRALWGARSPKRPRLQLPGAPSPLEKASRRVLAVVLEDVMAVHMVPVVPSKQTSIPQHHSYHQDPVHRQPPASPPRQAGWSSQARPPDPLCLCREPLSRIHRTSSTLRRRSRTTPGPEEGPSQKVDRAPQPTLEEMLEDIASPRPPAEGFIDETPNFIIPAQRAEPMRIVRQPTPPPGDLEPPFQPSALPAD
GFP-tagged PRR14 (1-212) double mutant (54-55EE and 154-155EE) (Q9BWN1, form named): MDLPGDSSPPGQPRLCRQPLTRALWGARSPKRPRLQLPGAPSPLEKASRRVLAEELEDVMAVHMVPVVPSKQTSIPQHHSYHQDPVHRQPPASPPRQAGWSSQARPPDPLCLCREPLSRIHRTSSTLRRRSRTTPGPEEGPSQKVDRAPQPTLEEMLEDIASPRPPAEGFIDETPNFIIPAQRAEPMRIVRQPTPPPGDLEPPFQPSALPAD
UniProt Q13185: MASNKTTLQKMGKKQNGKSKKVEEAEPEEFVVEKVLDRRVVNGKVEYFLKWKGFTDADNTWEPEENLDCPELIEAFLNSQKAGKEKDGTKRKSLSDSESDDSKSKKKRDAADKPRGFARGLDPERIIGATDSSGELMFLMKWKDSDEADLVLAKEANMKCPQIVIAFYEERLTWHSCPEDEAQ
UniProt P83916: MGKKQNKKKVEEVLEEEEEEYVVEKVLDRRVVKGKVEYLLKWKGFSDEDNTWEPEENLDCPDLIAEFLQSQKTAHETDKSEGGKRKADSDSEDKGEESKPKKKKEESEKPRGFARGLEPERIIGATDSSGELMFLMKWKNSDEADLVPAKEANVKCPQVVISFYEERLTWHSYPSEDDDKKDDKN
UniProt P45973: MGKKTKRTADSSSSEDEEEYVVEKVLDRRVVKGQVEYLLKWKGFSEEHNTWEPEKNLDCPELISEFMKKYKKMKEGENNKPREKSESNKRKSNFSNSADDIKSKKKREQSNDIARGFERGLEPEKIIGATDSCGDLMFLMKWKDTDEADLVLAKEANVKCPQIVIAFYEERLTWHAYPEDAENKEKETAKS

Experiments:
Assay in all cases: co-IP; GFP-PRR14 (1-212) constructs precipitated from Lenti-X 293T lysates (NP-40 lysis buffer with protease and phosphatase inhibitors and benzonase) with anti-GFP antibody on Protein A/G magnetic beads, 2.5 hours at +4°C; Western blot for HP1 isoforms; Normal Rabbit IgG as mock
[1] = target: GFP-tagged PRR14 (1-212) HP1-binding site 1 mutant (54-55EE) (human) (UniProt Q9BWN1)
[2] = target: GFP-tagged PRR14 (1-212) HP1-binding site 2 mutant (154-155EE) (human) (UniProt Q9BWN1)
[3] = target: GFP-tagged PRR14 (1-212) double mutant (54-55EE and 154-155EE) (human) (UniProt Q9BWN1)
[4] = target: GFP-tagged PRR14 (1-212) wild-type fragment (human) (UniProt Q9BWN1)

binding [1] | binding [2] | binding [3] | binding [4] | Substance
binds weakly | binds | no binding | binds | Heterochromatin Protein 1 gamma (HP1γ) (from UniProt Q13185 1-183)
– | binds | no binding | binds | Heterochromatin Protein 1 beta (HP1β) (from UniProt P83916 1-185)
– | binds | no binding | binds | Heterochromatin Protein 1 alpha (HP1α) (from UniProt P45973 1-191)
